Test results as given in article PMC4560833.
No constants are given. Whether binding was seen depends on the method and setting. Binding seen in cells or lysates may run through a third protein. Some entries that bind do so weakly or less than the wild type. Sequences can lack the tags named with a protein.

T1: Insig-1 cloned into p3Xflag-CMV-10 (UniProt O15503)
T1 sequence: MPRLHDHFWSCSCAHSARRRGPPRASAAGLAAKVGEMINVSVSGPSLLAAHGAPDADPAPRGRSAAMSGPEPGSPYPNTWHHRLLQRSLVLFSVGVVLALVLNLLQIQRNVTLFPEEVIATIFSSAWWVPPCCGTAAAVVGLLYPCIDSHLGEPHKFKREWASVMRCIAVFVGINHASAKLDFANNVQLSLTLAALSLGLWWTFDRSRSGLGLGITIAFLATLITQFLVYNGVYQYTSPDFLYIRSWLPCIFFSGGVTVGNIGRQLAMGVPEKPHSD

T2: Myc-tagged Scap (SREBP cleavage-activating protein) (UniProt Q12770)
T2 sequence: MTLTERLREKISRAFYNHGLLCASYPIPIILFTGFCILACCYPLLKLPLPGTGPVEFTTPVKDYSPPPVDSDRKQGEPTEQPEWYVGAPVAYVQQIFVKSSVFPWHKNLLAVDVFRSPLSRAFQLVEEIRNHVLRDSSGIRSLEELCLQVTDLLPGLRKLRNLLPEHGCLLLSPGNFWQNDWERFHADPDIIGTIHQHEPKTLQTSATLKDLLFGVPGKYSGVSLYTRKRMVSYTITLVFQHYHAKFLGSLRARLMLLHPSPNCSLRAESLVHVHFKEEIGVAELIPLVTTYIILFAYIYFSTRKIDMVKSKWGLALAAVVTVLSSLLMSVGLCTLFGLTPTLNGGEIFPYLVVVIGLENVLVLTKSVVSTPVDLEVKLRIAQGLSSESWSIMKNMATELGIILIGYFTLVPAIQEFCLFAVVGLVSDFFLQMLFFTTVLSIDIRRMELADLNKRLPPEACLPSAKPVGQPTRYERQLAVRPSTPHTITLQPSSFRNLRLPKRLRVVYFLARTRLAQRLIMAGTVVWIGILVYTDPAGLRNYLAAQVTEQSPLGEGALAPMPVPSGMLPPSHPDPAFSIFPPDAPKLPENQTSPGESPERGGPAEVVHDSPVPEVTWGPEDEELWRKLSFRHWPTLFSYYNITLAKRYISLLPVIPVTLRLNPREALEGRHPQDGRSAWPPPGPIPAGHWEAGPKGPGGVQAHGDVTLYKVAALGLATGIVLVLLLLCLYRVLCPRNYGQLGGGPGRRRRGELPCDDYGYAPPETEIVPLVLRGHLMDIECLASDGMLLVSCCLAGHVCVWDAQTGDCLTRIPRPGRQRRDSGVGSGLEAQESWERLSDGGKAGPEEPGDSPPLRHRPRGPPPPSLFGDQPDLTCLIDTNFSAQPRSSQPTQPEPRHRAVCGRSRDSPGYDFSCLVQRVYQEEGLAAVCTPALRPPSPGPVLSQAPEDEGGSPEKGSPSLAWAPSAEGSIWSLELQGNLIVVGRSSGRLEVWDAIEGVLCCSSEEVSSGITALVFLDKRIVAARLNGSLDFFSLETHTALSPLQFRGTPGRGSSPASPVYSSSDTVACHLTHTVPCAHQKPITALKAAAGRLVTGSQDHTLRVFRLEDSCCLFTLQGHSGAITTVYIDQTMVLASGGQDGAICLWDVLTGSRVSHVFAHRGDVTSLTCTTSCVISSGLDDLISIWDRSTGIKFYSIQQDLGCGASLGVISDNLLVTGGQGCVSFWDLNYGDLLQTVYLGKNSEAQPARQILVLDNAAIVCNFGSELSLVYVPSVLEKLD

T3: Flag-tagged SREBP-2 (UniProt Q12772)
T3 sequence: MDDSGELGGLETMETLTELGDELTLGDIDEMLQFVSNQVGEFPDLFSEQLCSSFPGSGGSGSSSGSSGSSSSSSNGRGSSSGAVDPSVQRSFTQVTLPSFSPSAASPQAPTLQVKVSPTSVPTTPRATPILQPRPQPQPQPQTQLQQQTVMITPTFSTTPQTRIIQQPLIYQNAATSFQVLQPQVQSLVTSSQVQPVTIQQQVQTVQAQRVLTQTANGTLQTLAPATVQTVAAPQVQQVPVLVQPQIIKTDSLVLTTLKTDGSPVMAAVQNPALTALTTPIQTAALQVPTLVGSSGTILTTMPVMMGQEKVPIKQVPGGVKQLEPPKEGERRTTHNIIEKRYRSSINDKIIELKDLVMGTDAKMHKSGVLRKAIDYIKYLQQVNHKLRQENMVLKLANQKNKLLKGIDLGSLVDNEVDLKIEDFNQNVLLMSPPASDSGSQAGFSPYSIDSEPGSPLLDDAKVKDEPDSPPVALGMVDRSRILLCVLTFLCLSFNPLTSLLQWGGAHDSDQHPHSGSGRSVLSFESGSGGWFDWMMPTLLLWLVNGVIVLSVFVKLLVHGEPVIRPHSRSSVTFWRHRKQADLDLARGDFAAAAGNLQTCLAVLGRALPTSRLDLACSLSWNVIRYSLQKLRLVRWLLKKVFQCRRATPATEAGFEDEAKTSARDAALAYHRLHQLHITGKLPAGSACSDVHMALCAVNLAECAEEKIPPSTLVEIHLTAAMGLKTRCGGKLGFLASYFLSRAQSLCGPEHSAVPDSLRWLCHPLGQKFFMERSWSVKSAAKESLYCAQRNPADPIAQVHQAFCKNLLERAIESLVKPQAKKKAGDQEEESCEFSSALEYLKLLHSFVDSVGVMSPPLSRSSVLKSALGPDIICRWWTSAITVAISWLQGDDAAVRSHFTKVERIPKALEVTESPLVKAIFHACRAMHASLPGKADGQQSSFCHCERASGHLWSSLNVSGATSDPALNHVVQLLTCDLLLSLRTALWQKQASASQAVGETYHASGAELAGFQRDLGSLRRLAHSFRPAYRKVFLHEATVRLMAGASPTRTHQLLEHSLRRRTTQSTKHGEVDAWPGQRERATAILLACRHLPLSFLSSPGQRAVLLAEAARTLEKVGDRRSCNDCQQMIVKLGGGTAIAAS

T4: PAQR3 (progestin and adipoQ receptors 3), overexpressed (UniProt Q6TCH7)
T4 sequence: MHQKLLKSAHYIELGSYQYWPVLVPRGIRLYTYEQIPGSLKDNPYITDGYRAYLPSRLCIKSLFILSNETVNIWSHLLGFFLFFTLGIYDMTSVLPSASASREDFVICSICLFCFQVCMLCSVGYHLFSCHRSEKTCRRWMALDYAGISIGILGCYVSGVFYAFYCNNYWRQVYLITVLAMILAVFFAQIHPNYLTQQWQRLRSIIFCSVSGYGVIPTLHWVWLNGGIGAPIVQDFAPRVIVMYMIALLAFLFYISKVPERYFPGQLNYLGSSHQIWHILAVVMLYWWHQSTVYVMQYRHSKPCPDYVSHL


Experiments:
Assay in all cases: co-IP; HEK293T cells transiently transfected; lysis buffer 20 mM Tris-HCl pH 7.5, 137 mM NaCl, 5 mM EDTA, 1% NP-40, 10% glycerol; antibody overnight at 4 °C, protein A/G agarose, immunoblot; in Fig. 4e cells in normal medium, LD medium or LD medium with 25-HC
[1] = target: T1, Insig-1 cloned into p3Xflag-CMV-10
[2] = target: T2, Myc-tagged Scap (SREBP cleavage-activating protein)
[3] = target: T3, Flag-tagged SREBP-2
[4] = target: T4, PAQR3 (progestin and adipoQ receptors 3), overexpressed

Binder | binding [1] | binding [2] | binding [3] | binding [4]
PAQR3 (progestin and adipoQ receptors 3), overexpressed (protein, UniProt Q6TCH7 1-311) MHQKLLKSAHYIELGSYQYWPVLVPRGIRLYTYEQIPGSLKDNPYITDGYRAYLPSRLCIKSLFILSNETVNIWSHLLGFFLFFTLGIYDMTSVLPSASASREDFVICSICLFCFQVCMLCSVGYHLFSCHRSEKTCRRWMALDYAGISIGILGCYVSGVFYAFYCNNYWRQVYLITVLAMILAVFFAQIHPNYLTQQWQRLRSIIFCSVSGYGVIPTLHWVWLNGGIGAPIVQDFAPRVIVMYMIALLAFLFYISKVPERYFPGQLNYLGSSHQIWHILAVVMLYWWHQSTVYVMQYRHSKPCPDYVSHL | no binding | binds | binds | 
Myc-tagged Scap (SREBP cleavage-activating protein) (protein, UniProt Q12770 1-1279) MTLTERLREKISRAFYNHGLLCASYPIPIILFTGFCILACCYPLLKLPLPGTGPVEFTTPVKDYSPPPVDSDRKQGEPTEQPEWYVGAPVAYVQQIFVKSSVFPWHKNLLAVDVFRSPLSRAFQLVEEIRNHVLRDSSGIRSLEELCLQVTDLLPGLRKLRNLLPEHGCLLLSPGNFWQNDWERFHADPDIIGTIHQHEPKTLQTSATLKDLLFGVPGKYSGVSLYTRKRMVSYTITLVFQHYHAKFLGSLRARLMLLHPSPNCSLRAESLVHVHFKEEIGVAELIPLVTTYIILFAYIYFSTRKIDMVKSKWGLALAAVVTVLSSLLMSVGLCTLFGLTPTLNGGEIFPYLVVVIGLENVLVLTKSVVSTPVDLEVKLRIAQGLSSESWSIMKNMATELGIILIGYFTLVPAIQEFCLFAVVGLVSDFFLQMLFFTTVLSIDIRRMELADLNKRLPPEACLPSAKPVGQPTRYERQLAVRPSTPHTITLQPSSFRNLRLPKRLRVVYFLARTRLAQRLIMAGTVVWIGILVYTDPAGLRNYLAAQVTEQSPLGEGALAPMPVPSGMLPPSHPDPAFSIFPPDAPKLPENQTSPGESPERGGPAEVVHDSPVPEVTWGPEDEELWRKLSFRHWPTLFSYYNITLAKRYISLLPVIPVTLRLNPREALEGRHPQDGRSAWPPPGPIPAGHWEAGPKGPGGVQAHGDVTLYKVAALGLATGIVLVLLLLCLYRVLCPRNYGQLGGGPGRRRRGELPCDDYGYAPPETEIVPLVLRGHLMDIECLASDGMLLVSCCLAGHVCVWDAQTGDCLTRIPRPGRQRRDSGVGSGLEAQESWERLSDGGKAGPEEPGDSPPLRHRPRGPPPPSLFGDQPDLTCLIDTNFSAQPRSSQPTQPEPRHRAVCGRSRDSPGYDFSCLVQRVYQEEGLAAVCTPALRPPSPGPVLSQAPEDEGGSPEKGSPSLAWAPSAEGSIWSLELQGNLIVVGRSSGRLEVWDAIEGVLCCSSEEVSSGITALVFLDKRIVAARLNGSLDFFSLETHTALSPLQFRGTPGRGSSPASPVYSSSDTVACHLTHTVPCAHQKPITALKAAAGRLVTGSQDHTLRVFRLEDSCCLFTLQGHSGAITTVYIDQTMVLASGGQDGAICLWDVLTGSRVSHVFAHRGDVTSLTCTTSCVISSGLDDLISIWDRSTGIKFYSIQQDLGCGASLGVISDNLLVTGGQGCVSFWDLNYGDLLQTVYLGKNSEAQPARQILVLDNAAIVCNFGSELSLVYVPSVLEKLD | binds |  |  | binds
